Reference: paper PMC4336329 (PLoS ONE, 2015)
The whole screen tested about 310,000 compounds, of which about 2,200 (0.71%) showed an effect of 50% or more. The effect is printed as a negative number. Some of the results follow.

Biological target: human ether-à-go-go-related gene (hERG) potassium channel (human, UniProt Q12809)
Assay: primary screen, population patch clamp on CHO cells stably expressing hERG

Sequence of human ether-à-go-go-related gene (hERG) potassium channel (Q12809 whole entry, looked up): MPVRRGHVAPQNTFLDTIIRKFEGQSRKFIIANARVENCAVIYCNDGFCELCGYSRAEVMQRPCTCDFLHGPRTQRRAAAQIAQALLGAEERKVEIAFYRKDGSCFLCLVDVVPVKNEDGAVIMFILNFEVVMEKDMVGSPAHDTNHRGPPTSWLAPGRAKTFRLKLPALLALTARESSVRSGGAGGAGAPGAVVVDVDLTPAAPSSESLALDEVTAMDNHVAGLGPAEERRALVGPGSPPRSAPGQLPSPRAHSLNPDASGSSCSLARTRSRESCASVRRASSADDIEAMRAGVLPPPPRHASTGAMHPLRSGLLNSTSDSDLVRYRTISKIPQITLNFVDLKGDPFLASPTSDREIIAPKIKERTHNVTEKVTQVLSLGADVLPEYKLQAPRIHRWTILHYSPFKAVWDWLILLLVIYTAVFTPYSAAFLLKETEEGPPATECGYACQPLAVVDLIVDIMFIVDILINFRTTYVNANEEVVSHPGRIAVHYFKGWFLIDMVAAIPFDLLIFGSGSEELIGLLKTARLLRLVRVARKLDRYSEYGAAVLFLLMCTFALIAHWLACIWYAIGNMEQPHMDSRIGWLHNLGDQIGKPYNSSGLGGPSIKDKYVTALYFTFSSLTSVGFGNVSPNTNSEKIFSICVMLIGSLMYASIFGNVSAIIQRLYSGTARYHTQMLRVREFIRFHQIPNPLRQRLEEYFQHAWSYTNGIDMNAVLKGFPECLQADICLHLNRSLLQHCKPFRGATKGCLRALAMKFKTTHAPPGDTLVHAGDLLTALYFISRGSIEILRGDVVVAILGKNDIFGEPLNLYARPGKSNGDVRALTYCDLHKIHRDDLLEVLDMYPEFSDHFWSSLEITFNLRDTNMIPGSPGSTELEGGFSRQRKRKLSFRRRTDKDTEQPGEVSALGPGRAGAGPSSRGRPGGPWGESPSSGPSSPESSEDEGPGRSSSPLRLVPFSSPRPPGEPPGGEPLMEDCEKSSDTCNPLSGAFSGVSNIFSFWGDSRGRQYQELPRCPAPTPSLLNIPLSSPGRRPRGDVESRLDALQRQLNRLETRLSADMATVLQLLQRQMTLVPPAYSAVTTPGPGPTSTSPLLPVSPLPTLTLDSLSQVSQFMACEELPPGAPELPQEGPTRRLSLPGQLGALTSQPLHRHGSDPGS

**Q.** How did the “hERG current change (%, negative = inhibition) at 1uM” value turn out when `COc1ccc(C2C(C#N)=C(/N=C/N3CCN(C)CC3)OC3=C2C(=O)CC(C)(C)C3)cc1OC` (stereo not drawn) was run?
**A.** 13.3%

**Q.** Which “hERG current change (%, negative = inhibition) at 1uM” value does the source give for `NC(=O)CC1C(=O)N(c2ccccc2)C(=S)N1NC(=O)c1ccccc1` (stereo not drawn) here?
**A.** 17.9%

**Q.** With `O=C(c1cccs1)N1CCN=C1SCc1ccccc1` as the compound, how does the “hERG current change (%, negative = inhibition) at 1uM” value read?
**A.** 8.31%

**Q.** For `Cc1ccc(S(=O)(=O)N2CCCCC2)cc1NC(=S)NC(=O)c1ccco1`, which “hERG current change (%, negative = inhibition) at 1uM” value is on record?
**A.** 8.5%

**Q.** Which “hERG current change (%, negative = inhibition) at 1uM” value does the source give for `C/C(=N\Nc1ccc(Cl)cc1)c1ccccn1.Cl` here?
**A.** -0.472%

**Q.** Which “hERG current change (%, negative = inhibition) at 1uM” value does the source give for `CCCCNC(=O)N(O)C1N(/N=C/c2ccccc2F)C(=S)SC1(C)C` (stereo not drawn) here?
**A.** 16.1%

**Q.** With `CCN(CC)C(=S)Nc1ccc(OC(F)F)cc1` as the compound, how does the “hERG current change (%, negative = inhibition) at 1uM” value read?
**A.** -9.5%

**Q.** With `COc1ccc(CNc2nnnn2C)c(OC)c1` as the compound, how does the “hERG current change (%, negative = inhibition) at 1uM” value read?
**A.** 9.64%

**Q.** For `O=C(CNC(=O)c1ccccc1)OCC(=O)c1ccccc1Cl`, which “hERG current change (%, negative = inhibition) at 1uM” value is on record?
**A.** 13.7%

**Q.** How did the “hERG current change (%, negative = inhibition) at 1uM” value turn out when `COCCCNC(NC(=O)c1ccc(Cl)cc1)C(Cl)(Cl)Cl` (stereo not drawn) was run?
**A.** 1.56%

**Q.** For `CCN1CCC2(CC1)NC(CO)(CO)CO2`, which “hERG current change (%, negative = inhibition) at 1uM” value is on record?
**A.** 14.3%

**Q.** How did the “hERG current change (%, negative = inhibition) at 1uM” value turn out when `C1CCN(CCCNC2C3CC4CC(C3)CC2C4)C1.Cl` (stereo not drawn) was run?
**A.** 7.44%

**Q.** How did the “hERG current change (%, negative = inhibition) at 1uM” value turn out when `COC(=O)c1sccc1NC(=O)CC1C(=O)NCCN1C(=O)c1ccccc1` (stereo not drawn) was run?
**A.** 6.1%

**Q.** For `Cc1ccc2c(Cl)cc(Cl)c(OCC(=O)N(C(C)C)C(C)C)c2n1`, which “hERG current change (%, negative = inhibition) at 1uM” value is on record?
**A.** 2.29%

**Q.** Which “hERG current change (%, negative = inhibition) at 1uM” value does the source give for `O=C1c2ccc(Cl)cc2S(=O)(=O)c2cccc(C(=O)N3CCN(c4ccc(Cl)cn4)CC3)c21` here?
**A.** 1.52%

**Q.** For `C/C(=C\C(=O)c1ccccc1)Nc1ccc(Cl)c(Br)c1`, which “hERG current change (%, negative = inhibition) at 1uM” value is on record?
**A.** 12.3%

**Q.** For `COc1ccccc1CCNC(=O)CCCn1nc(C)c2c(C)n(-c3ccc(C)cc3)nc2c1=O`, which “hERG current change (%, negative = inhibition) at 1uM” value is on record?
**A.** 13.3%

**Q.** With `Cc1c(CC(=O)O)c(=O)oc2c(C)c3occ(-c4ccc(F)cc4)c3cc12` as the compound, how does the “hERG current change (%, negative = inhibition) at 1uM” value read?
**A.** 8.9%

**Q.** With `Cc1csc(NC(=O)/C=C/c2ccc3c(c2)OCO3)n1` as the compound, how does the “hERG current change (%, negative = inhibition) at 1uM” value read?
**A.** 8.44%

**Q.** How did the “hERG current change (%, negative = inhibition) at 1uM” value turn out when `O=C(CCCN=C1NS(=O)(=O)c2ccccc21)OCC(=O)c1ccccc1` was run?
**A.** 11.7%

**Q.** How did the “hERG current change (%, negative = inhibition) at 1uM” value turn out when `Cc1ccc2nc(N3C(=O)C(O)=C(C(=O)c4ccco4)C3c3cccc(O)c3)sc2c1.O=C(O)C(=O)O` (stereo not drawn) was run?
**A.** 11.2%

**Q.** For `CCc1ccccc1NC(=O)C1CCCN(c2ncccn2)C1` (stereo not drawn), which “hERG current change (%, negative = inhibition) at 1uM” value is on record?
**A.** 11.2%

**Q.** With `CCOC(=O)C1C(c2ccc(C)o2)NC(=O)NC1(O)C(F)(F)F` (stereo not drawn) as the compound, how does the “hERG current change (%, negative = inhibition) at 1uM” value read?
**A.** 10.6%

**Q.** How did the “hERG current change (%, negative = inhibition) at 1uM” value turn out when `Cc1ccc(CCNC(=O)CS(=O)Cc2nc(-c3cccs3)oc2C)cc1` (stereo not drawn) was run?
**A.** 2.73%

**Q.** For `CCc1ccc(NC(=O)C2CCN(C(=O)[C@@H]3Cc4ccccc4CN3)CC2)cc1`, which “hERG current change (%, negative = inhibition) at 1uM” value is on record?
**A.** -26.6%

**Q.** For `Cc1ccccc1NC(=S)N(CCCN1CCOCC1)Cc1ccccn1`, which “hERG current change (%, negative = inhibition) at 1uM” value is on record?
**A.** 2.78%

**Q.** Which “hERG current change (%, negative = inhibition) at 1uM” value does the source give for `Cc1ccc(Oc2cnc3ccccc3n2)cc1` here?
**A.** 9.7%

**Q.** `Clc1ccc(SCCn2ccnc2)cc1` was tested. Which “hERG current change (%, negative = inhibition) at 1uM” value did it give?
**A.** 5.04%

**Q.** `O=C(NCc1cccc(Br)c1)C1CC2Cn3c(nc4ccccc43)C2N1c1ccccc1` (stereo not drawn) was tested. Which “hERG current change (%, negative = inhibition) at 1uM” value did it give?
**A.** 15%

**Q.** `Cc1cc(=O)[nH]c(N2CCCNCC2)n1` was tested. Which “hERG current change (%, negative = inhibition) at 1uM” value did it give?
**A.** 9.57%

**Q.** `CCCCSc1nc2c(=O)[nH][nH]c(=O)c2n1Cc1ccccc1` was tested. Which “hERG current change (%, negative = inhibition) at 1uM” value did it give?
**A.** 7.62%

**Q.** Which “hERG current change (%, negative = inhibition) at 1uM” value does the source give for `O=C(N1CCCCCC1)N1CCN(C(=O)N2CCCCC2)CC1` here?
**A.** 15.9%

**Q.** With `O=C(NCC1COc2ccccc2O1)c1ccc(Cl)c(S(=O)(=O)N2CCOCC2)c1` (stereo not drawn) as the compound, how does the “hERG current change (%, negative = inhibition) at 1uM” value read?
**A.** -1.68%

**Q.** For `Cc1nc2cc(NCc3cc([N+](=O)[O-])ccc3O)ccc2n1Cc1ccccc1`, which “hERG current change (%, negative = inhibition) at 1uM” value is on record?
**A.** 3.58%

**Q.** For `O=C(NC1CCCc2c1cnn2-c1cc(F)cc(F)c1)c1ccc[n+]([O-])c1` (stereo not drawn), which “hERG current change (%, negative = inhibition) at 1uM” value is on record?
**A.** 8.61%

**Q.** With `CC(C)(C)c1[nH]nc2c1C(c1ccoc1)C(C#N)=C(N)O2` (stereo not drawn) as the compound, how does the “hERG current change (%, negative = inhibition) at 1uM” value read?
**A.** 2.24%

**Q.** Which “hERG current change (%, negative = inhibition) at 1uM” value does the source give for `O=C(CSc1nc(=O)n(CCCN2CCOCC2)c2c1CCCC2)Nc1ccc(F)cc1F` here?
**A.** 4.72%

**Q.** `N#Cc1c(Nc2ccccc2)sc(C(=O)C2CC2)c1N` was tested. Which “hERG current change (%, negative = inhibition) at 1uM” value did it give?
**A.** 9.86%

**Q.** How did the “hERG current change (%, negative = inhibition) at 1uM” value turn out when `CCOC(=O)C1CCCN(c2nnnn2-c2ccccc2)C1` (stereo not drawn) was run?
**A.** 4.43%

**Q.** Which “hERG current change (%, negative = inhibition) at 1uM” value does the source give for `COc1ccc(C)c(-n2c(N)cc(=O)n(Cc3ccccc3)c2=O)c1` here?
**A.** 12.3%

**Q.** `COc1ccc(CCn2c(N)c(S(=O)(=O)c3cccs3)c3nc4ccccc4nc32)cc1OC` was tested. Which “hERG current change (%, negative = inhibition) at 1uM” value did it give?
**A.** 9.62%

**Q.** How did the “hERG current change (%, negative = inhibition) at 1uM” value turn out when `C/C=C/c1ccc(OCCCCOc2ccccc2C(C)=O)c(OC)c1` was run?
**A.** 5.6%

**Q.** How did the “hERG current change (%, negative = inhibition) at 1uM” value turn out when `Brc1ccccc1-c1cnco1` was run?
**A.** 6.1%

**Q.** `COc1ccc(S(=O)(=O)Nc2ccc(-n3cccc3)cc2)cc1` was tested. Which “hERG current change (%, negative = inhibition) at 1uM” value did it give?
**A.** 9.03%

**Q.** Which “hERG current change (%, negative = inhibition) at 1uM” value does the source give for `O=C(c1ccccc1F)c1cn(CC(=O)N2CCCCC2)c2ccccc12` here?
**A.** 11%

**Q.** For `COc1ccccc1NS(=O)(=O)c1cccc(C(=O)NCC(c2ccc(F)cc2)N2CCOCC2)c1` (stereo not drawn), which “hERG current change (%, negative = inhibition) at 1uM” value is on record?
**A.** -2.64%

**Q.** `c1ccc(Nc2cccc3c(Nc4ccccc4)cccc23)cc1` was tested. Which “hERG current change (%, negative = inhibition) at 1uM” value did it give?
**A.** 3.53%

**Q.** How did the “hERG current change (%, negative = inhibition) at 1uM” value turn out when `CCOc1ccc(C(=O)Nc2cccc3ncccc23)cc1Cl` was run?
**A.** 15.4%

**Q.** How did the “hERG current change (%, negative = inhibition) at 1uM” value turn out when `c1ccc(NC2=NCCN2CCCC2CCCC2)cc1` was run?
**A.** -15.6%

**Q.** Which “hERG current change (%, negative = inhibition) at 1uM” value does the source give for `COc1ccc(S(=O)(=O)N2CCCCCC2)cc1C(=O)N(C)Cc1cccs1` here?
**A.** 3.31%

**Q.** How did the “hERG current change (%, negative = inhibition) at 1uM” value turn out when `CCC(C)NS(=O)(=O)c1ccc(S(=O)(=O)N(CC(=O)Nc2ccccc2)CC2CCCO2)cc1` (stereo not drawn) was run?
**A.** 5.68%

**Q.** For `COCCNC(=O)CN(C(=O)CCC(=O)Nc1ccccn1)c1cc(C)ccc1C`, which “hERG current change (%, negative = inhibition) at 1uM” value is on record?
**A.** 4.31%

**Q.** Which “hERG current change (%, negative = inhibition) at 1uM” value does the source give for `O=C1CSC(=O)N1CCOCCN1C(=O)CSC1=O` here?
**A.** 11%

**Q.** For `O=c1[nH]nc(SCCS(=O)(=O)c2ccc(F)cc2)n1-c1ccccc1C(F)(F)F`, which “hERG current change (%, negative = inhibition) at 1uM” value is on record?
**A.** 11.1%

**Q.** How did the “hERG current change (%, negative = inhibition) at 1uM” value turn out when `NC(=O)c1cc(S(=O)(=O)NCCc2ccccc2)cs1` was run?
**A.** 14.8%

**Q.** How did the “hERG current change (%, negative = inhibition) at 1uM” value turn out when `COC(=O)c1ccccc1NC(=O)Cn1nc2n(C)c3ccccc3n2c(=O)c1=O` was run?
**A.** 8.08%

**Q.** How did the “hERG current change (%, negative = inhibition) at 1uM” value turn out when `CCc1ccccc1NC(=O)CSc1ccsc1[N+](=O)[O-]` was run?
**A.** 17.5%
